Assay results: patent US7144865B2, “Compositions and methods for treating obesity” (The United States of America as represented by the …, priority 2003, dated 2006)

Test: Body weight and water intake in S-D rats treated with zinc or zinc plus CHP (FIGS. 4, 5, 9)
Settings: normal weight 8 month old normal Sprague Dawley rats; FIG. 5

## [Zn] [zinc]
  body weight (changes): slightly affected
